Test results published in PubChem BioAssay AID504332 (National Center for Advancing Translational Sciences (NCATS), 2011).
Among all 350,000 compounds or so, about 31,000 (8.9%) were called active. The shares of active, inactive and inconclusive entries below differ from those in the screen. The call rests on the fitted dose curve; in most records, active means well fitted inhibition curve with a large enough effect; inconclusive means small, poorly fitted or top-dose-only effect; inactive means no such curve, though single readings can be large or run the other way. Potencies beside an inconclusive call are fits to weak or partial responses and may not hold up. Where a SMILES comes first, the peptide text is derived from it. [ ]: non-standard residue; d: D form. The star is where a group is joined. ξ: configuration not given here. Cbz = O=C(OCc1ccccc1)*; ξP = O=C(O)C1CCCN1

Each molecule was assayed against Histone-lysine N-methyltransferase EHMT2 (Homo sapiens) (UniProt Q96KQ7) (assay: qHTS Assay for Inhibitors of Histone Lysine Methyltransferase G9a). Conditions: G9a H3K9 monomethylation, AlphaScreen, 2 h; activity, negative = inhibition: at 59 µM (top of the series) unless noted.
Method in brief: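 Quantitative HTS format: methyltransferase activity on a biotin-tagged H3K9 peptide is measured by AlphaScreen, using a rabbit anti-monomethyl-H3K9 antibody with streptavidin donor and anti-IgG acceptor beads. Final levels are 20 nM enzyme, 500 nM peptide, 20 uM SAM; 2 h RT.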
Further: nearly all actives have a fitted effect of over 75% in size.
On the % scale 0 is the no-effect control and ±100 the full control effect; potency means the concentration at half of the fitted maximal effect; tags describe the fitted curve by direction and shape.

UniProt Q96KQ7, sequence (Q96KQ7 whole entry, looked up): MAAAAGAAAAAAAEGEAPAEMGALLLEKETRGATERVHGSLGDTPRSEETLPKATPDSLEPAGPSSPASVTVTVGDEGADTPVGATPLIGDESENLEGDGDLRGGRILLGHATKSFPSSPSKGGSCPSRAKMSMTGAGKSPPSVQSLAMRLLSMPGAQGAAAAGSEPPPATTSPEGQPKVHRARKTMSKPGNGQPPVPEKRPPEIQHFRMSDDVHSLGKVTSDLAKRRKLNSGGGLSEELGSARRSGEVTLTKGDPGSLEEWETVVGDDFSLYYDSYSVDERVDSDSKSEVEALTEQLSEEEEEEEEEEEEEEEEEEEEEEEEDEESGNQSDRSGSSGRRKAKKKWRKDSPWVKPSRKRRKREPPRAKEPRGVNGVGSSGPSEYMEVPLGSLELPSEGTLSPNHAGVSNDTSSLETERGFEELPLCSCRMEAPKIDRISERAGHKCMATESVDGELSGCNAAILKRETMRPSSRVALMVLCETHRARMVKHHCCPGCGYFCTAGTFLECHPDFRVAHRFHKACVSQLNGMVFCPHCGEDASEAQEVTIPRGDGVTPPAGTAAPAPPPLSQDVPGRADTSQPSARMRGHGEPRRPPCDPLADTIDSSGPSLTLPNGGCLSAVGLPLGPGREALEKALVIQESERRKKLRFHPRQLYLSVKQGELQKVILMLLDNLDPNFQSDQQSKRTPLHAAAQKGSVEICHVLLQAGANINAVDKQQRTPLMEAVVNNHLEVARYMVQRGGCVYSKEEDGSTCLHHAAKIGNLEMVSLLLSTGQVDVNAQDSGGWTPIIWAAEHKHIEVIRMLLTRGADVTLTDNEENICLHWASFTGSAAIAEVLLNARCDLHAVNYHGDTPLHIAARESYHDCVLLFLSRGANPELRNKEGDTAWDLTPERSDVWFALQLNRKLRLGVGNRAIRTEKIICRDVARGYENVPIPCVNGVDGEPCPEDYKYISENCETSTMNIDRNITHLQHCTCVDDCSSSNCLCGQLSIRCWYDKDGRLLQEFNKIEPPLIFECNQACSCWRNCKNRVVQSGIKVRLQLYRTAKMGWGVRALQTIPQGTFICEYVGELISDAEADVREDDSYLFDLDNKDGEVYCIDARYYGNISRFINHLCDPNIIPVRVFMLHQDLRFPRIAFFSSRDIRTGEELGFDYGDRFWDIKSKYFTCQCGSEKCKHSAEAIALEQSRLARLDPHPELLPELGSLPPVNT

Row | Compound | Potency | activity, negative = inhibition
1 | Cc1ccc(S(=O)(=O)Nc2cccc(C(=O)NCC(c3ccco3)N3CCCCC3)c2)cc1F (stereo unspecified) | inconclusive: 50.1 µM [inhibitor, partial curve] | 
2 | OCC1(Cc2cccc(C(F)(F)F)c2)CCN(Cc2cc3ccccc3o2)CC1 |  | inconclusive: -68% [inhibitor] [at 0.501 µM]
3 | CCCC(CCC)C(=O)Nc1cccc(-c2nc3cccnc3s2)c1C | inconclusive: 2.82 µM [inhibitor, partial curve, poor fit] | 
4 | CCCCOc1ccc(C2/C(=C(\O)c3ccc4c(c3)OCCO4)C(=O)C(=O)N2CCCN2CCOCC2)cc1 (stereo unspecified) | inconclusive: 44.7 µM [inhibitor, partial curve, poor fit] | 
5 | Cc1nn2c(C)c(C(=O)N3CCN(c4ccccc4F)CC3)cnc2c1-c1ccc(F)cc1 | inactive | 
6 | CC(=O)N1C(C(=O)O)Cc2c([nH]c3ccccc23)C1(C)C (stereo unspecified) | inactive | 
7 | Clc1ccc(Cn2nc(-c3ccccc3)nc2-c2ccccc2)cc1 | inactive | 
8 | Cc1ccc(NC(=O)c2noc3c2CCC3)cc1C | inconclusive: 25.1 µM [inhibitor, single point] | 
9 | Cc1cccc(NS(=O)(=O)c2ccc(-c3cnc(C4CC4)o3)cc2)c1 | inconclusive: 28.2 µM [inhibitor, full curve] | 
10 | COc1cccc(/C=C2\C(=O)N(c3cccc(C)c3)C(=O)c3ccccc32)c1 | active: 17.8 µM | 
11 | O=C(NCc1ccccc1Cl)C1CCN(S(=O)(=O)Cc2ccccc2)CC1 | inconclusive: 39.8 µM [inhibitor, partial curve, poor fit] | 
12 | CCOC(=O)c1ccc(NC(=O)c2cnn(-c3ccc(C)cc3C)c2C2CCN(C(=O)OC(C)(C)C)CC2)cc1 | inactive | 
13 | O=C(N/N=C/c1ccco1)c1ccc(NC(=O)c2ccc(Cl)cc2)cc1 | inactive | 
14 | O=C(CN1C(=O)COc2ccccc21)NCCCN1CCOCC1 | inactive | 
15 | CN1C(=O)c2c(sc3c2CCCC3)NC1c1ccccc1O (stereo unspecified) |  | inconclusive: -86.1% [inhibitor]
16 | COC(=O)c1cccnc1Oc1ccccc1 | inconclusive: 50.1 µM [inhibitor, partial curve] | 
17 | CCOC(=O)NN1C(=O)c2ccccc2NC1c1cccs1 (stereo unspecified) | inactive | 
18 | COc1ccc2c(c1)O[C@@H](c1cccc(C(F)(F)F)c1)[C@H](OC(=O)Nc1ccc(OC(F)F)cc1)C2=O | inactive | 
19 | O=c1c2cc(Cl)ccc2nc(-c2ccccc2)n1O | inactive | 
20 | COc1ccc(N2C(=O)CC(NNc3ncc(Cl)cc3Cl)C2=O)cc1 (stereo unspecified) | inconclusive: 56.2 µM [inhibitor, partial curve] | 
21 | CCC1(C)Cc2c(sc3c2c(=O)n(-c2ccccc2)c(=O)n3C)CO1 (stereo unspecified) | inconclusive: 4.47 µM [inhibitor, full curve] | 
22 | COc1cccc(CC(=O)OCC(=O)NC2(C#N)CCCC2)c1 | inconclusive: 2.24 µM [inhibitor, partial curve, poor fit] | 
23 | COc1cc(NC(=O)c2cccnc2SC)cc(OC)c1 | inactive | 
24 | Cc1ccc(Cl)cc1NC(=O)C(Cc1ccccc1)NS(=O)(=O)c1cccc2nsnc12 (stereo unspecified) | inconclusive: 25.1 µM [inhibitor, partial curve, poor fit] | 

Row | Compound | Potency | activity, negative = inhibition
25 | CCC(SC1=N/C(=C/c2ccccc2OC)C(=O)N1c1ccccc1)C(=O)Nc1cc(C)on1 (stereo unspecified) | inactive | 
26 | Cc1ccc(-c2cc3ncc(C(=O)c4cc(Cl)c(C)cc4O)cn3n2)cc1 | inactive | 
27 | CCOc1ccc(Br)cc1C1C(C(=O)OC)=C(C)NC2=C1C(=O)c1ccccc12 (stereo unspecified) | inconclusive: 3.16 µM [inhibitor, partial curve, poor fit] | 
28 | COc1ccc(-c2nc3cnccn3c2Nc2ccc(C)cc2)cc1 | inactive | 
29 | CC(C)N1C/C(=C/c2cccnc2)C(=O)/C(=C/c2cccnc2)C1 | inactive | 
30 | O=[N+]([O-])c1ccccc1S(=O)(=O)Oc1ccc(C(=S)N2CCOCC2)cc1 | active: 28.2 µM | 
31 | CCOc1ccc(NC(=S)NC(=O)Cc2ccccc2)cc1 | inconclusive: 20 µM [inhibitor, full curve] | 
32 | COc1ccc(-c2nc(C)c(C(C)=O)n2O)cc1 |  | inactive: -5.05% [at 12.7 µM]
33 | Oc1cccc(/C=N/N=C/c2cccc(O)c2O)c1O | active: 31.6 µM | 
34 | O=C(NCCN1C(=O)S/C(=C\c2ccccc2F)C1=O)C1CCCN1C(=O)c1cccs1 (stereo unspecified) | inconclusive: 50.1 µM [inhibitor, partial curve, poor fit] | 
35 | O=C(CNC(=O)c1ccccc1Br)N/N=C/c1cc(Br)ccc1O | inactive | 
36 | Cc1ccc(-n2ncc3c(NCCCN4CCOCC4)ncnc32)c(C)c1 | inconclusive: 89.1 µM [inhibitor, single point] | 
37 | CC(C)c1ccc(C2=CC(c3cccc(Cl)c3)n3c(nc4ccccc43)N2)cc1 (stereo unspecified) | inconclusive: 22.4 µM [inhibitor, single point] | 
38 | COc1ccccc1CN1CCC2(CCNCC2)CC1 |  | inactive: -0.507% [at 12.7 µM]
39 | COc1ccc2ccccc2c1/C=N/Nc1cccc(C(=O)O)c1 | active: 44.7 µM | 
40 | O=C(NCc1ccc(Cl)cc1)C1=Cc2cc(Br)ccc2OC1 | inactive | 
41 | CCC(=O)N1CCc2cc(Br)cc(S(=O)(=O)N3CCCC(C(=O)Nc4cc(C)ccc4OC)C3)c21 (stereo unspecified) | inactive | 
42 | N#C/C(=C\c1ccc(O)cc1)c1nc2ccccc2o1 | inconclusive: 70.8 µM [inhibitor, partial curve, poor fit] | 
43 | O=C1NN=C(c2ccccc2)CC1c1c[nH]c2ccccc12 (stereo unspecified) | inconclusive: 50.1 µM [inhibitor, partial curve, poor fit] | 
44 | CCOC(=O)N1CCN(CC(=O)c2c(C)[nH]c3ccccc23)CC1 | inconclusive: 15.8 µM [inhibitor, single point] | 
45 | COc1ccc(S(=O)(=O)Nc2nc3ccccc3s2)cc1 | inconclusive: 3.16 µM [inhibitor, partial curve, poor fit] | 
46 | O=C(O)CNC(=O)C1CCCN1C(=O)CNC(=O)OCc1ccccc1 (stereo not drawn) (Cbz-Gly-[ξP]-Gly-OH) | inconclusive: 1.12 µM [inhibitor, partial curve, poor fit] | 
47 | COc1ccc(OC)c(CNC(=O)c2ccc3nc(C(C)C)oc3c2)c1 | inactive | 
48 | O=C(O)c1occc1CSc1ccccc1 | inconclusive: 89.1 µM [inhibitor, single point] | 

Row | Compound | Potency | activity, negative = inhibition
49 | C=C(C)C(=O)Oc1ccc(N2C(=O)[C@@H]3C4C=CC(C4)[C@@H]3C2=O)cc1 |  | inactive: -4.27% [at 2.33 µM]
50 | CN=c1scc(-c2ccco2)n1/N=C/c1ccc(O)c(O)c1 | active: 11.2 µM | 
51 | O=C(CCN1C(=O)C2CC=C(Cl)CC2C1=O)NCc1ccco1 (stereo unspecified) | inactive | 
52 | CCOC(=O)NC(C(F)(F)F)(C(F)(F)F)P(=O)(c1ccccc1)c1ccccc1 | inconclusive: 31.6 µM [inhibitor, partial curve, poor fit] | 
53 | COc1ccc(CNc2ncnc3ccc(-c4ccccc4C#N)cc23)c(OC)c1 |  | inactive: 4.06% [at 0.501 µM]
54 | CCOc1ccc(CN2CCN(Cc3ccc4cc(F)ccc4n3)CC2CCO)cc1 (stereo unspecified) | inactive | 
55 | CCN(CC)c1ccc(N2C(=O)/C(=C/c3cccnc3)SC2=S)cc1 | inconclusive: 89.1 µM [inhibitor, single point] | 
56 | COc1ccc(C)cc1Nc1ccc(C(=O)O)cc1[N+](=O)[O-] | inconclusive: 50.1 µM [inhibitor, partial curve] | 
57 | CCc1nnc(NC(=O)CCNC(=O)c2ccco2)s1 | inactive | 
58 | CCn1c(=O)c2cc(C(=O)NCCCN3CCN(c4ccc(F)cc4)CC3)sc2c2ccccc21 | inconclusive: 3.55 µM [inhibitor, partial curve, poor fit] | 
59 | CCNC(=S)NNc1nncc2ccccc12 | inconclusive: 56.2 µM [inhibitor, partial curve, poor fit] | 
60 | COc1ccc(C2=C(C)C(=O)N(Cc3ccc(C(=O)NC(C)c4ccccc4)cc3)S2(=O)=O)cc1 (stereo unspecified) | inactive | 
61 | CCCn1c(C)cc(C(=O)COc2ncnc3sccc23)c1C | inconclusive: 2.51 µM [inhibitor, partial curve, poor fit] | 
62 | CCC(=O)N1CCN(c2ccc(NC(=O)c3cc4ccccc4o3)cc2)CC1 | inconclusive: 25.1 µM [inhibitor, single point] | 
63 | CCOc1ccc(N2CC(c3nc4ccccc4n3CCCCOc3ccc(OC)cc3)CC2=O)cc1 (stereo unspecified) | inconclusive: 22.4 µM [inhibitor, partial curve, poor fit] | 
64 | O=C(N/N=C/c1ccc2c(c1)OCO2)c1ccc(Br)o1 | inconclusive: 7.94 µM [inhibitor, partial curve, poor fit] | 
65 | N#Cc1ccc(/C=C2\CCn3c2nc2cc(C(=O)O)ccc2c3=O)cc1 | inconclusive: 56.2 µM [inhibitor, single point] | 
66 | O=C(COc1ccccc1F)Nc1ccc(N2CCOCC2)cc1N1CCOCC1 | inconclusive: 79.4 µM [inhibitor, single point] | 
67 | COc1ccc(OC)c(-c2csc(NC(=O)c3ccc4c(c3)OCO4)n2)c1 | inconclusive: 44.7 µM [inhibitor, partial curve] | 
68 | O=C(O)CSc1cc(C(=O)c2ccccc2O)cn2c(=O)c3c(-c4ccccc4)csc3nc12 | inconclusive: 89.1 µM [inhibitor, single point] | 
69 | Cc1noc(C)c1CN1C(=O)NC2(CCCCCCC2)C1=O | inactive | 
70 | Cc1cccc(OC(C)C(=O)Nc2nonc2-c2ccc(Br)cc2)c1C (stereo unspecified) | inconclusive: 35.5 µM [inhibitor, single point] | 
71 | CN(C)CC(C)(C)CNC(=S)Nc1ccc(S(=O)(=O)N2CCOCC2)cc1 | inactive | 
